{"source": "paper PMC4336329", "about": "(PLoS ONE, 2015)", "note": "In all, about 310,000 compounds went through this assay and about 2,200 (0.71%) showed an effect of 50% or more. The effect is printed as a negative number. The list shows a part of the results.", "data": [{"biological_target": "human ether-à-go-go-related gene (hERG) potassium channel (human, UniProt Q12809)", "sequence (Q12809 whole entry, looked up)": "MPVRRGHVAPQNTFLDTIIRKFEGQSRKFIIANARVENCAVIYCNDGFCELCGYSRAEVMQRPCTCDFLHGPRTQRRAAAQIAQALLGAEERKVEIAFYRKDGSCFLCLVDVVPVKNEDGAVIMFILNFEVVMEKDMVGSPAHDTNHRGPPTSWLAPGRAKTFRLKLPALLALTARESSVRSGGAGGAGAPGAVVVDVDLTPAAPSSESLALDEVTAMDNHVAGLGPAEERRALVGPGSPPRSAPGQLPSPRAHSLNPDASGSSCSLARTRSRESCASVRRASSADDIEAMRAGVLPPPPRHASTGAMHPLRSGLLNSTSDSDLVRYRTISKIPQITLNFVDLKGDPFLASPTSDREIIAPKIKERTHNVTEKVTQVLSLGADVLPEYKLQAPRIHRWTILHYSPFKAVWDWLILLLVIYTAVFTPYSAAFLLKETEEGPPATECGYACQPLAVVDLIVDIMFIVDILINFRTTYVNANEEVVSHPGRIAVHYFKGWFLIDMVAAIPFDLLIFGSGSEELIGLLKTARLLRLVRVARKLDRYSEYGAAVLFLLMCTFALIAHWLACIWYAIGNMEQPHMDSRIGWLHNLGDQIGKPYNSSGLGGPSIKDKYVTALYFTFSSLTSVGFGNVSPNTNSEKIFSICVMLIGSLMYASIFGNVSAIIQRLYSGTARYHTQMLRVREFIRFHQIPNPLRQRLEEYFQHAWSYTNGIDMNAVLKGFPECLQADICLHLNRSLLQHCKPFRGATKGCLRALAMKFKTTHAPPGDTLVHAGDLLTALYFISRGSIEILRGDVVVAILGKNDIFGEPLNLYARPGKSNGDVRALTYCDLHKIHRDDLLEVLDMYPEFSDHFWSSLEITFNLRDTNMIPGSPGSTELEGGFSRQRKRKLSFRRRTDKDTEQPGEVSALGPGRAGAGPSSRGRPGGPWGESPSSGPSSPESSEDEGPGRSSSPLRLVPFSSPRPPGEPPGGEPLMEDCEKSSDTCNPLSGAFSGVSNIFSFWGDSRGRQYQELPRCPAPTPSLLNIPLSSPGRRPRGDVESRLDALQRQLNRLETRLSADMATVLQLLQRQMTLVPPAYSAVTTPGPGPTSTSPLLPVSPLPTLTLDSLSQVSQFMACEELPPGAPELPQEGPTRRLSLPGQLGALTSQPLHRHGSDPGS", "assay": "primary screen, population patch clamp on CHO cells stably expressing hERG", "units": {"hERG current change (%, negative = inhibition) at 1uM": "%"}, "values": [{"smiles": "Cc1cc(C)c(S(=O)(=O)N2CCOC2CNC(=O)C(=O)NCc2ccncc2)c(C)c1", "note": "(stereo not shown)", "hERG current change (%, negative = inhibition) at 1uM": 17.6}, {"smiles": "CCC1C(=NO)C(CC)C(c2ccccc2)NC1c1ccccc1", "note": "(stereo not shown)", "hERG current change (%, negative = inhibition) at 1uM": 10.6}, {"smiles": "CCOC(=O)CNC(=O)CNC(=O)Cn1ccc2ccccc2c1=O", "hERG current change (%, negative = inhibition) at 1uM": 12.4}, {"smiles": "COc1cc(/C=N/Nc2nc(N3CCCCC3)nc(N3CCCCC3)n2)ccc1OC(=O)c1ccco1", "hERG current change (%, negative = inhibition) at 1uM": 11.4}, {"smiles": "Cc1ccc(CCCOC(=O)C[N+]2(C)CCOCC2)cc1.[I-]", "hERG current change (%, negative = inhibition) at 1uM": 5.43}, {"smiles": "COc1ccc(CN=Nc2cc(C)nc(NS(=O)(=O)c3ccccc3Cl)n2)cc1", "hERG current change (%, negative = inhibition) at 1uM": 4.13}, {"smiles": "CCC(C)Nc1nc(N)c([N+](=O)[O-])c(NCCO)n1", "note": "(stereo not shown)", "hERG current change (%, negative = inhibition) at 1uM": 12.1}, {"smiles": "CCOC(=O)N1CCC(NC(=O)CS(=O)Cc2nc(-c3ccc(C)cc3)oc2C)CC1", "note": "(stereo not shown)", "hERG current change (%, negative = inhibition) at 1uM": 11.3}, {"smiles": "CC(c1nccs1)N(C)C(=O)CCc1nnc(CCc2ccccc2)o1", "note": "(stereo not shown)", "hERG current change (%, negative = inhibition) at 1uM": 8.91}, {"smiles": "O=C(Cc1c(F)cccc1Cl)NC1CCN(Cc2ccccc2)CC1", "hERG current change (%, negative = inhibition) at 1uM": 13.7}, {"smiles": "Cc1ccc(-c2nnc(SCC(=O)NC3CC3)o2)cc1", "hERG current change (%, negative = inhibition) at 1uM": 0.3}, {"smiles": "CCCCCOc1ccc(NC2=CC(=O)CCC2)cc1", "hERG current change (%, negative = inhibition) at 1uM": 5.15}, {"smiles": "Cc1cc(NS(=O)(=O)c2ccc(NC(=O)CCCOc3ccccc3C)cc2)nc(C)n1", "hERG current change (%, negative = inhibition) at 1uM": 9.32}, {"smiles": "CCN(CC)C(=N)/C(C#N)=N/Nc1ccccc1", "hERG current change (%, negative = inhibition) at 1uM": 5.34}, {"smiles": "CC(OC(=O)CCc1ccccc1)C(=O)Nc1ncc(Cl)cc1Cl", "note": "(stereo not shown)", "hERG current change (%, negative = inhibition) at 1uM": 0.875}, {"smiles": "O=C(NCCN1CCOCC1)NC1(C(F)(F)F)Oc2ccccc2O1", "hERG current change (%, negative = inhibition) at 1uM": 6.95}, {"smiles": "Cc1cccc(NC(=O)Nc2nnc(N3CCCCC3C)s2)c1C", "note": "(stereo not shown)", "hERG current change (%, negative = inhibition) at 1uM": 14.2}, {"smiles": "CCOC(=O)C1(Cc2ccc(Cl)cc2)CCN(Cc2cn(CC)nc2C)CC1", "hERG current change (%, negative = inhibition) at 1uM": -28.5}, {"smiles": "CCS(=O)(=O)c1nc2ccccc2n1Cc1ccccc1Cl", "hERG current change (%, negative = inhibition) at 1uM": 3.41}, {"smiles": "CC1(O)C(=O)C=C2C=C(c3ccc(C#N)cc3)OC=C2C1=O", "note": "(stereo not shown)", "hERG current change (%, negative = inhibition) at 1uM": 16}, {"smiles": "COc1ccc(-c2cn3c(C)c(C(=O)Nc4cccc(C)n4)sc3n2)cc1", "hERG current change (%, negative = inhibition) at 1uM": 4.49}, {"smiles": "CCOC(=O)C1CCN(S(=O)(=O)c2ccc(C)cc2)CC1", "hERG current change (%, negative = inhibition) at 1uM": 21.9}, {"smiles": "NC(N)=NS(=O)(=O)c1ccc(N)cc1", "hERG current change (%, negative = inhibition) at 1uM": 5.49}, {"smiles": "COc1ccc(-c2cc(C(F)(F)F)n3nc(C(=O)N4CCCC4)cc3n2)cc1", "hERG current change (%, negative = inhibition) at 1uM": -2.76}, {"smiles": "COC(=O)C1=C(C)OC(N)=C(C#N)C1c1cc2cc(C)ccc2nc1Cl", "note": "(stereo not shown)", "hERG current change (%, negative = inhibition) at 1uM": 24.5}, {"smiles": "Cc1nc(/C(N)=N/OC(=O)c2cccc(Cl)c2)c(C(F)(F)F)o1", "hERG current change (%, negative = inhibition) at 1uM": 18}, {"smiles": "Cc1cc(C)c(C(=O)CSc2nc3ccccc3c(=O)[nH]2)cc1C", "hERG current change (%, negative = inhibition) at 1uM": 18.1}, {"smiles": "O=C(CCCc1ccccc1)NCCc1ccccc1", "hERG current change (%, negative = inhibition) at 1uM": 11.5}, {"smiles": "CN(CC(=O)Nc1cccc(F)c1)C(=O)c1ccccc1Sc1ccccc1C#N", "hERG current change (%, negative = inhibition) at 1uM": -8.06}, {"smiles": "CN(CCC#N)C(=O)COC(=O)c1ccc2c(=O)n3c(nc2c1)CCC3", "hERG current change (%, negative = inhibition) at 1uM": 18}, {"smiles": "Cc1ccc(-n2cc(CN3CCC(CO)(Cc4cccc(C(F)(F)F)c4)CC3)cn2)cc1", "hERG current change (%, negative = inhibition) at 1uM": -64.3}, {"smiles": "Cc1c(C(=O)OCc2nc3ccsc3c(=O)[nH]2)oc2ccccc12", "hERG current change (%, negative = inhibition) at 1uM": 0.971}, {"smiles": "COc1ccc(CCNc2cc(C)nc(N)n2)cc1OC", "hERG current change (%, negative = inhibition) at 1uM": 9.65}, {"smiles": "O=C(NC1CCCCC1)C(c1ccco1)N(C(=O)c1csnn1)C1CCCC1", "note": "(stereo not shown)", "hERG current change (%, negative = inhibition) at 1uM": -2.7}, {"smiles": "CCS(=O)(=O)c1nc(S(=O)(=O)c2ccc(Cl)cc2)c(NCc2ccccn2)s1", "hERG current change (%, negative = inhibition) at 1uM": 8.22}, {"smiles": "C/C=C/C(=O)N1CC2(CC(c3cccc(NC(=O)COc4ccc(Cl)cc4)c3)=NO2)C[C@@H]1C(N)=O", "note": "(stereo partly shown)", "hERG current change (%, negative = inhibition) at 1uM": -0.935}, {"smiles": "CCOC(=O)c1[nH]c(C(=O)O)c(CCC(=O)OC)c1C", "hERG current change (%, negative = inhibition) at 1uM": 14.4}, {"smiles": "O=C(COC(=O)CCc1c[nH]c2ccccc12)Nc1cc([N+](=O)[O-])ccc1Cl", "hERG current change (%, negative = inhibition) at 1uM": 2.98}, {"smiles": "CCC/C(=N\\NC(=O)c1ccc(OC)c(OC)c1)c1ccccc1", "hERG current change (%, negative = inhibition) at 1uM": 6.46}, {"smiles": "CN(C)S(=O)(=O)c1ccc(Cl)c(C(=O)NCC2CCCCC2)c1", "hERG current change (%, negative = inhibition) at 1uM": 11.3}, {"smiles": "C#CCOCCOCCOCCNc1nc(N2CCN(C(=O)[C@H](CCCCN)n3cc([C@@H](N)CO)nn3)CC2)nc(N2CCN(C(=O)[C@H](Cc3cc4ccccc4[nH]3)n3cc([C@@H](N)Cc4ccc(O)cc4)nn3)CC2)n1.Cl", "hERG current change (%, negative = inhibition) at 1uM": -2.32}, {"smiles": "CC1(C)OCC(COC(=O)Nc2cccnc2)([N+](=O)[O-])CO1", "hERG current change (%, negative = inhibition) at 1uM": 5.6}, {"smiles": "CCN(CC)CCNC(=O)CCc1nnc2ccc(N3CCC(C)CC3)nn12", "hERG current change (%, negative = inhibition) at 1uM": 16.3}, {"smiles": "Cc1ccc(S(=O)(=O)CCC(=O)NCCN2C(=O)S/C(=C/c3ccc(F)cc3)C2=O)cc1", "hERG current change (%, negative = inhibition) at 1uM": 0.236}, {"smiles": "COc1ccc(CN(C)CC2CCCN(CCc3ccc(F)cc3)C2)c(OC)c1OC", "note": "(stereo not shown)", "hERG current change (%, negative = inhibition) at 1uM": -15.7}, {"smiles": "N#Cc1cccc(NC(=O)CC2CCCCC2)c1", "hERG current change (%, negative = inhibition) at 1uM": 2.05}, {"smiles": "N/C(=N\\c1nc(CSc2ccccn2)cc(=O)[nH]1)Nc1ccc(Cl)cc1Cl", "hERG current change (%, negative = inhibition) at 1uM": 15.7}, {"smiles": "CC(C)CN(C(=O)CN1CCN(c2ccc([N+](=O)[O-])cc2)CC1)c1c(N)n(CC(C)C)c(=O)[nH]c1=O", "hERG current change (%, negative = inhibition) at 1uM": 3.37}, {"smiles": "CCOC(=O)c1cc2occc2n1CC(=O)NC1CCC(C)CC1", "note": "(stereo not shown)", "hERG current change (%, negative = inhibition) at 1uM": 4.08}, {"smiles": "CCOC(=O)C[C@H]1c2ccc(C(F)(F)F)cc2S(=O)(=O)N1C(C)C", "hERG current change (%, negative = inhibition) at 1uM": 3.93}, {"smiles": "Cc1[nH]c2ccccc2c1C(=O)CSc1cccc[n+]1[O-]", "hERG current change (%, negative = inhibition) at 1uM": 16.7}, {"smiles": "CN(C)C(=O)c1cc(C(=O)c2ccc(F)cc2F)c[nH]1", "hERG current change (%, negative = inhibition) at 1uM": 12.6}, {"smiles": "Cn1cccc1C(=O)NCCc1ccccc1", "hERG current change (%, negative = inhibition) at 1uM": 11.9}, {"smiles": "Cc1cc(C2(c3ccc(O)c(C)c3)C(=O)N(C)c3ccc(Br)cc32)ccc1O", "hERG current change (%, negative = inhibition) at 1uM": 8.38}, {"smiles": "COC(=O)c1sc2nc(CN3CCOCC3)nc(N3CCOCC3)c2c1C", "hERG current change (%, negative = inhibition) at 1uM": 9.5}]}]}
